Measurements: patent US20210115143A1
The source holds more than one record for some entries. The other results are left out here. There may be further records. Values that stand side by side read as repeated measurements (runs, samples, wells or individuals).

What was measured:
[1] = biological target: hPD-L1-Fc fusion protein (made in the filing, Example 1) (human) (UniProt Q9NZQ7); test: competitive ELISA: hPD-L1-hFc coated, competitor hCD80-hFc-biotin 100 µg/ml
[2] = biological target: hPD-L1-Fc fusion protein (made in the filing, Example 1) (human) (UniProt Q9NZQ7); test: competitive ELISA: hPD-L1-hIgG coated, competitor hPD-1-hIgG-biotin 10 µg/ml

Chain of UniProt Q9NZQ7 (Q9NZQ7 19-238 limits assumed): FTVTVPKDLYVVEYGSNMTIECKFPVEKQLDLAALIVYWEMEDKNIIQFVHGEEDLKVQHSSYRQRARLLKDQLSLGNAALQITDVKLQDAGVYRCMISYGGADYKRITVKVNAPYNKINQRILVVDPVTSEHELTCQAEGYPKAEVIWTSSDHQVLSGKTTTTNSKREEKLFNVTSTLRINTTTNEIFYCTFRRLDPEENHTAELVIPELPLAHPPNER

B1: B50-6 mAb (anti-hPD-L1, human IgG1, lambda) (antibody, part only; not given: human IgG1 and lambda constants, part only)
heavy, part: QVQLQQSGPGLVKPSQTLSLTCAISGDSVSSTKAAWYWIRQSPSRGLEWLGRTYFRSKWYNDYADSVKSRLTINPDTSKNQFSLQLKSVSPEDTAVYYCARGQYTAFDIWGQGTMVTVSS
light, part: QVQLVQSGAEVKKPASSVKVSCTASGGSFSTYAISWVRQAPGQGLEWMGGIIPIFGTTKYAQRFQGRVTITADESTTTAYMELSSLISDDTALYYCTTSRGFSYGWFDYWGQGTLVTVSS
For B1, the IC50 [1] was 0.553 µg/mL and 11.7 nM and the IC50 [2] was 1.76 µg/mL and 11.7 nM.
